Measured values taken from PubChem BioAssay AID2675 (National Center for Advancing Translational Sciences (NCATS), 2010).
The campaign covered roughly 280,000 compounds. About 100 (0.036%) were called active. The inconclusive results got no clear call from the source; some entries with a clear call stand among them for comparison. The call rests on the fitted dose curve; in most records, active means well fitted inhibition curve with a large enough effect in the signal ratio, with a control signal flat (not every such curve was filed as active); inconclusive means small, poorly fitted or top-dose-only effect, or effect the other way, or a change in a side signal; inactive means no such curve, though single readings can be large or run the other way; the % refers to the signal ratio. Potencies beside an inconclusive call are fits to weak or partial responses and may not hold up. A note “side channel” means that the fit belongs to a control or component signal, not to the main read-out.

target: Muscleblind-like protein 1 (Homo sapiens) (UniProt Q9NR56); assay: qHTS Assay for Inhibitors of MBNL1-poly(CUG) RNA binding; details: TR-FRET MBNL1-His/biotin-(CUG)12 binding, 665/545 ratio; series mostly up to 57.5 µM
Procedure, shortened: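 Compounds (final 92 nM to 58 uM) are added to His-tagged MBNL1 and biotin-(CUG)12, then terbium anti-His antibody and streptavidin-XL665 (5 nM final). After 60 min at room temperature, the 665/545 nm ratio is read.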
Potency means the concentration at half of the fitted maximal effect; tags describe the fitted curve by direction and shape or compound fluorescence and quenching.

Chain of UniProt Q9NR56 (Q9NR56 whole entry, looked up): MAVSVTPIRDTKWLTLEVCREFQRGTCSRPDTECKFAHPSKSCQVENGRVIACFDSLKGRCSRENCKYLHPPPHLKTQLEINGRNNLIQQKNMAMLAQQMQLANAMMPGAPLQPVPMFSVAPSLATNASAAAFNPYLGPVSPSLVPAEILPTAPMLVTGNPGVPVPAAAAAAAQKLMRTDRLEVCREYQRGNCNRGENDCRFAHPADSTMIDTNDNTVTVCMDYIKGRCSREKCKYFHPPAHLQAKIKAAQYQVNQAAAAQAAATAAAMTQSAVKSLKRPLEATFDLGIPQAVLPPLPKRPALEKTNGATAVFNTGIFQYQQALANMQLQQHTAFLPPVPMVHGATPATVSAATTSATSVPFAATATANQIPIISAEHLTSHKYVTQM

SMILES	Potency
CCOC(=O)C1(CCOc2ccccc2)CCN(Cc2ccncc2)CC1	inactive
CCNc1cccc2c1C(=O)N(C)C2=O	inconclusive: 15.8 µM [quencher, side channel, partial curve]
Cn1cccc1C(=O)NC(=O)COC(=O)c1cc([N+](=O)[O-])ccc1Cl	inconclusive: 3.55 µM [quencher, side channel, partial curve]
CC(=O)Nc1ccc(OCC(=O)c2ccc(C)cc2C)cc1	inconclusive: 39.8 µM [quencher, side channel, single point]
CCc1ccc(S(=O)(=O)NCCc2csc(-c3cccnc3)n2)s1	inconclusive: 3.55 µM [quencher, side channel, single point]
N=C1c2c(cc(=O)n3c2[nH]c2ccccc23)CN1CCN1CCOCC1	inactive
CCn1cc(S(=O)(=O)NC2CCCCC2)cn1	inconclusive: 15.8 µM [quencher, side channel, partial curve]
Cc1c(C(=O)O)sc2nc(SCC(=O)Nc3ccc(S(=O)(=O)NC(C)(C)C)cc3)[nH]c(=O)c12	inconclusive: 126 µM [inhibitor, partial curve]
O=C1c2cc3ccccc3c(-c3ccccc3)c2C(=O)N1c1ccccn1	inconclusive: 25.1 µM [activator, single point]
Fc1ccc(-[n+]2nc(Nc3ccccc3)sc2-c2c3ccccc3cc3ccccc23)cc1	inconclusive: 17.8 µM [quencher, side channel, partial curve]
COC(=O)Cn1cc(/C=C(/C#N)C(=O)N2CCOCC2)c2ccccc21	inconclusive: 28.2 µM [quencher, side channel, single point]
COc1ccc(-c2cc(C(=O)NCC(c3ccccc3)N(C)C)c3ccccc3n2)cc1OC (stereo not given)	inconclusive: 25.1 µM [quencher, side channel, partial curve]
O=C(O)c1cccc(-n2cccc2/C=C2/SC(=O)N(CC(=O)N3CCCC3)C2=O)c1	inconclusive: 22.4 µM [quencher, side channel, single point]
O=C(N/N=C/c1cc(Br)c(O)c(Br)c1)c1cccnc1	inconclusive: 39.8 µM [quencher, side channel, partial curve, poor fit]
COc1cc(/C=C2\NC(=O)NC2=O)cc(Br)c1OC	inconclusive: 2.24 µM [quencher, side channel, full curve]
O=C(/C=C/c1cccc([N+](=O)[O-])c1)N1CCN(S(=O)(=O)c2cccs2)CC1	inconclusive: 12.6 µM [quencher, side channel, partial curve]
COc1ccc2oc(-c3ccccc3[N+](=O)[O-])cc(=O)c2c1	inconclusive: 2.24 µM [quencher, side channel, full curve]
O=c1[nH]cnc(O)c1C(c1ccc([N+](=O)[O-])cc1)c1c(O)nc[nH]c1=O	inconclusive: 28.2 µM [quencher, side channel, partial curve]
CC1=C(n2nnc([N+](=O)[O-])n2)C(c2cccnc2)C(C#N)=C(N)O1 (stereo not given)	inconclusive: 5.62 µM [quencher, side channel, partial curve]
Cc1ccc2cccc(N=Cc3c(C)[nH]n(-c4ccccc4)c3=O)c2n1	inconclusive: 22.4 µM [quencher, side channel, partial curve]

SMILES	Potency
CS(=O)(=O)Nc1ccc(C2=NN(S(=O)(=O)c3ccccc3)C(c3cccs3)C2)cc1 (stereo not given)	inactive
NC(=S)N/N=C/c1ccccc1OC(=O)/C=C/c1ccccc1	inactive
O[C@@H]1CN(Cc2ccc(-n3cccn3)cc2)CC[C@H]1N1CCN(c2ccccc2F)CC1	inconclusive: 100 µM [inhibitor, single point]
COc1cc(/C=C/C(=O)OCC(=O)N(C)C2CCS(=O)(=O)C2)ccc1OC(F)F (stereo not given)	inconclusive: 31.6 µM [quencher, side channel, partial curve]
COc1ccc(C2=NNC(c3cc(Cl)cc4c3OCOC4)C2)c(O)c1 (stereo not given)	inactive
O=C(C1CCC(CNS(=O)(=O)c2cccc3nsnc23)CC1)N1CC=C(c2ccccc2)CC1 (stereo not given)	inconclusive: 12.6 µM [quencher, side channel, partial curve]
O=C(NNC(=S)NC(=O)c1ccccc1)c1cccc([N+](=O)[O-])c1	inconclusive: 8.91 µM [quencher, side channel, full curve]
COc1ccc(OC)c(Nc2nc(NCCCN(C)C)nc(N)c2[N+](=O)[O-])c1	inconclusive: 17.8 µM [quencher, side channel, partial curve, poor fit]
COc1cc(/C=N/NC(=S)NC2CC3CCC2C3)ccc1O (stereo not given)	inactive
COc1cc(CC(=O)OCC(=O)Nc2cc([N+](=O)[O-])ccc2Cl)cc(OC)c1OC	inconclusive: 12.6 µM [quencher, side channel, partial curve, poor fit]
Cn1c(=O)c(=O)n(C)c2cc([N+](=O)[O-])c([N+](=O)[O-])cc21	inconclusive: 12.6 µM [quencher, partial curve]
CCNC(=S)NC1CC2CCC(C1)N2Cc1ccccc1 (stereo not given)	inactive
c1ccc(-c2cn3c(n2)CCC3)cc1	inactive
N=c1c(C(=O)NCC2CCCO2)cc2c(=O)n3ccccc3nc2n1C1CCCCC1 (stereo not given)	inconclusive: 2.51 µM [quencher, side channel, partial curve]
Cc1cccc2nc(CSc3nc4[nH]ncc4c(=O)n3-c3cccc(Cl)c3)cc(=O)n12	inconclusive: 2 µM [quencher, side channel, single point]
Cc1ccc(C)c2[nH]c(=O)c(CCNC(=O)c3ccc(S(=O)(=O)N(C)C)cc3)cc12	inconclusive: 7.08 µM [quencher, side channel, single point]
O=C(c1cccc2nc3ccccc3nc12)N1CCOCC1	inconclusive: 12.6 µM [quencher, side channel, partial curve]
COc1ccc(-c2cc(-c3ccccc3)c(C#N)c(SCC(=O)Nc3ncc(C)s3)n2)cc1	inconclusive: 39.8 µM [fluorescent, single point]
COc1ccc(OC)c(C2C(C(=O)Nc3ccc(F)cc3)=C(C)Nc3nc(CCCO)nn32)c1 (stereo not given)	inconclusive: 8.91 µM [quencher, side channel, single point]
N/C(=N\OC(=O)Oc1ccccc1)c1cccc([N+](=O)[O-])c1	inconclusive: 14.1 µM [quencher, side channel, partial curve]

SMILES	Potency
COc1ccc(Cl)cc1NC(=O)C(C)N1CCN(C/C=C/c2ccccc2)CC1 (stereo not given)	inactive
Cc1nc2cccc(C)n2c(=O)c1Cl	inconclusive: 14.1 µM [quencher, side channel, partial curve]
C=CCn1cccc(C(=O)Nc2cc(OC)c(OC)c(OC)c2)c1=O	inactive
S=c1[nH]nc(-c2cccnc2)n1/N=C/c1ccc(Br)s1	inactive
O=C1c2ccccc2C2=Nc3ccccc3SC(c3ccccc3F)C12 (stereo not given)	inconclusive: 39.8 µM [quencher, side channel, single point]
c1ccc2c(c1)Nc1ccncc1S2	inconclusive: 15.8 µM [quencher, side channel, partial curve]
Cc1ccc(C(NC(=O)N2CCOCC2)C(Cl)Cl)cc1F (stereo not given)	inactive
COc1ccc(-n2nc(C(=O)NCC(=O)NCc3ccco3)c3ccccc3c2=O)cc1Cl	inconclusive: 22.4 µM [quencher, side channel, single point]
O=C(Cn1cc2c(n1)CCCC2)NC1CCCCCC1	inconclusive: 3.16 µM [quencher, side channel, partial curve]
c1ccc(NC2=NCCCCS2)cc1	inconclusive: 1 µM [quencher, side channel, single point]
NC(=O)c1cc2cc(Cl)ccc2oc1=O	inconclusive: 11.2 µM [quencher, side channel, partial curve]
COC(=O)c1ccc(CSc2ccc3nnc(-c4ccccn4)n3n2)o1	inconclusive: 25.1 µM [quencher, side channel, partial curve]
CC1(c2ccccc2)CC(C)(C)N2C(=O)C(=O)c3cccc1c32 (stereo not given)	inconclusive: 28.2 µM [quencher, side channel, partial curve, poor fit]
COc1cc(C(=O)O/N=C(\N)c2ccccn2)cc(OC)c1OC	inactive
CCOc1ccc(/C=C/C2=NNC(=O)CC2)cc1	inconclusive: 14.1 µM [quencher, side channel, partial curve]
Cc1cc(C)c2sc(NC(=O)c3ccc([N+](=O)[O-])o3)nc2c1	inconclusive: 2.51 µM [quencher, side channel, full curve, poor fit]
CC1CC(C)CN(CCCNC(=O)c2cc3c(s2)-c2ccccc2OC3)C1 (stereo not given)	inconclusive: 11.2 µM [quencher, side channel, partial curve, poor fit]
O=C(Nc1ccc2ccccc2c1)c1ccc(Br)o1	inactive
COc1ccc(/C(O)=C2\C(=O)C(=O)N(CCN(C)C)C2c2cccc(OC)c2OC)cc1Cl (stereo not given)	inconclusive: 35.5 µM [quencher, side channel, single point]
O=C1CNCc2[nH]c3ccccc3c2N1c1ccccc1	inconclusive: 39.8 µM [quencher, side channel, single point]
